What was measured:
[1] = PK of bispecific antibodies and their LD038 (8) / LD343 (8) conjugates in rats; type: in vivo, Sprague Dawley rats; settings: rat PK; remark made with the efficacy results of Example 20
Procedure: (§1) Jugular vein blood was sampled from each rat at 10 min, 4 h, 1 d, 3 d, 7 d, 14 d and 21 d post dosing. Total antibody (TAb) concentration of Bsab 6-WT and Bsab 12-WT in plasma was captured by human cMET protein and detected by goat anti-human IgG Fc (HRP), calculated using GraphPad Prism 8.0 software.
as §1, with “Bsab 6-WT, Bsab 67-WT, Bsab 68-WT and Bsab 81-WT were intravenously administered at 3 mg/kg to male Sprague Dawley rats (n=3 per group). Jugular” for “Jugular”, “6-WT, Bsab 67-WT, Bsab 68-WT” for “6-WT”, “81-WT” for “12-WT”
Bsab 67, Bsab 81, Bsab 67-LD038 (8), Bsab 67-LD343 (8), Bsab 81-LD038 (8) and Bsab 81-LD343 (8) were intravenously administered at 3 mg/kg to male Sprague Dawley rats (n=3 per group). Jugular vein blood was sampled from each rat at 10 min, 4 h, 1 d, 3 d, 7 d, 14 d and 21 d post dosing. Total antibody (TAb) concentration of Bsab 67, Bsab 81, Bsab 67-LD038 (8), Bsab 67-LD343 (8), Bsab 81-LD038 (8) and Bsab 81-LD343 (8) in plasma was captured by human cMET protein and detected by goat anti-human IgG Fc (HRP), calculated using GraphPad Prism 8.0 software.

[2] = system: EBC-1, MKN-45, SNU-5 and NCI-H1975 xenograft models; test: In vivo efficacy of bispecific ADCs (Example 20); parameters: species or system mice; settings: EBC-1, MKN-45, SNU-5, NCI-H1975 xenografts, single i.v. injection of conjugates; FIGS. 12A-12D
Procedure: (§2) EBC-1 (EK-Bioscience) tumor model was established by injecting 3×10^6 cells suspended in 0.1 mL PBS. 8 days after tumor inoculation, mice with average tumor size ˜180 mm^3 were selected and assigned into 11 groups using stratified randomization (n=6 per group) based upon their tumor volumes.
as §2, with “MKN-45 (Procell)” for “EBC-1 (EK-Bioscience)”, “5×10^6” for “3×10^6”, “PBS mixed with Matrigel (1:1). 6” for “PBS. 8”, “˜131” for “˜180”, “13” for “11”
SNU-5 (COBIOER) tumor model was established by injecting 5×10^6 cells suspended in 0.1 mL PBS. 8 days after tumor inoculation, mice with average tumor size ˜131 mm^3 were selected and assigned into 13 groups using stratified randomization (n=6 per group) based upon their tumor volumes.
as §2, with “NCI-H1975 (Procell)” for “EBC-1 (EK-Bioscience)”, “5×10^6” for “3×10^6”, “PBS mixed with Matrigel (1:1). 21” for “PBS. 8”, “˜199” for “˜180”
The tumor size and body weight were measured as described before. Animal body weight was monitored as an indirect measure of tolerability. […]

B1: Bsab 68: EGFR and cMET bispecific antibody; sequences of Bsab 68WT in Table 16 (protein)
chain 1: QVQLVESGGGVVQPGRSLRLSCAASGFTFSTYGMHWVREAPGKDLEWVAVIWDDGSYKYYGDSVKGRFTISRDNSKNTLYLQMNSLRAEDTAVYYCARDGITMVRGVMKDYFDYWGQGTLVTVSSGGGGSGGGGSGGGGSGGGGSAIQLTQSPSSLSASVGDRVTITCRASQDISSALVWYQKKPGKAPKLLIYDASSLESGVPSRFSGSESGTDFTLTISSLQPEDFATYYCQQFNSYPLTFGKGTKVEIKGGGGS[omitted - human IgG1 Fc with changes]
chain 2: QVQLVQSGAEVKKPGASVKVSCKASGYIFTAYTMHWVRQAPGQKLEWMGWIKPNNGLANYAQKFQGRVTMTRDTSISTAYMELSRLRSDDTAVYYCARSEITTEFDYWGQGTLVTVSSGGGGSGGGGSGGGGSGGGGSDIVMTQSPDSLAVSLGERATINCKSSESVDSYANSFLHWYQQKPGQPPKLLIYRASTRESGVPDRFSGSGSGTDFTLTISSLQAEDVAVYYCQQSKEDPLTFGDGTKVEIKGGGGS[omitted - human IgG1 Fc with S354C T366S L368A Y407V (EU numbers)]
PK [1]: worse PK
anti-tumor activity [2]: lesser activity

From patent US20250381289A1, “EGFR AND C-MET BISPECIFIC BINDING AGENTS, CONJUGATES THEREOF AND METHODS OF USING THE SAME” (GENMAB A/S, priority 2024, published 2025)
